Assay results as given in PMC9911399, “Two distinct binding modes provide the RNA-binding protein RbFox with extraordinary sequence specificity”.
Numbering of substitutions follows the chain as printed; changes in the protein carry UniProt numbers. The list shows a part of the results.

B1: CGCAAGC (DNA:RNA)
RNA: GGGAGACCGGAAUUCAGAUUGUCCCGCAAGCUUAAAUCCCGUCGUAGCCACCA
DNA 1: CAATCTGAATTCCGGTCTCCC
DNA 2: TGGTGGCTACGACGGGATT
B2: ACCAGCA (DNA:RNA)
RNA: B1 RNA with C25A, G26C, A29G, G30C, C31A
DNA 1: CAATCTGAATTCCGGTCTCCC
DNA 2: TGGTGGCTACGACGGGATT
B3: UGGAUCG (DNA:RNA)
RNA: B1 RNA with C25U, C27G, A29U, G30C, C31G
DNA 1: CAATCTGAATTCCGGTCTCCC
DNA 2: TGGTGGCTACGACGGGATT
B4: CGAUAAC (DNA:RNA)
RNA: B1 RNA with C27A, A28U, G30A
DNA 1: CAATCTGAATTCCGGTCTCCC
DNA 2: TGGTGGCTACGACGGGATT
B5: AUCGCCC (DNA:RNA)
RNA: B1 RNA with C25A, G26U, A28G, A29C, G30C
DNA 1: CAATCTGAATTCCGGTCTCCC
DNA 2: TGGTGGCTACGACGGGATT
B6: CUCCAGC (DNA:RNA)
RNA: B1 RNA with G26U, A28C
DNA 1: CAATCTGAATTCCGGTCTCCC
DNA 2: TGGTGGCTACGACGGGATT
B7: UGGUCUA (DNA:RNA)
RNA: B1 RNA with C25U, C27G, A28U, A29C, G30U, C31A
DNA 1: CAATCTGAATTCCGGTCTCCC
DNA 2: TGGTGGCTACGACGGGATT
B8: AGAGACU (DNA:RNA)
RNA: B1 RNA with C25A, C27A, A28G, G30C, C31U
DNA 1: CAATCTGAATTCCGGTCTCCC
DNA 2: TGGTGGCTACGACGGGATT
B9: CCAACAA (DNA:RNA)
RNA: B1 RNA with G26C, C27A, A29C, G30A, C31A
DNA 1: CAATCTGAATTCCGGTCTCCC
DNA 2: TGGTGGCTACGACGGGATT
B10: AUACUCC (DNA:RNA)
RNA: B1 RNA with C25A, G26U, C27A, A28C, A29U, G30C
DNA 1: CAATCTGAATTCCGGTCTCCC
DNA 2: TGGTGGCTACGACGGGATT
B11: CCCUAUA (DNA:RNA)
RNA: B1 RNA with G26C, A28U, G30U, C31A
DNA 1: CAATCTGAATTCCGGTCTCCC
DNA 2: TGGTGGCTACGACGGGATT
B12: UCUGGGG (DNA:RNA)
RNA: B1 RNA with C25U, G26C, C27U, A28G, A29G, C31G
DNA 1: CAATCTGAATTCCGGTCTCCC
DNA 2: TGGTGGCTACGACGGGATT
B13: GUAGGAA (DNA:RNA)
RNA: GGGAGACCGGAAUUCAGAUUGUCCGUAGGAAUUAAAUCCCGUCGUAGCCACCA
DNA 1: CAATCTGAATTCCGGTCTCCC
DNA 2: TGGTGGCTACGACGGGATT
B14: CACUCUU (DNA:RNA)
RNA: B1 RNA with G26A, A28U, A29C, G30U, C31U
DNA 1: CAATCTGAATTCCGGTCTCCC
DNA 2: TGGTGGCTACGACGGGATT
B15: CAGAUUC (DNA:RNA)
RNA: B1 RNA with G26A, C27G, A29U, G30U
DNA 1: CAATCTGAATTCCGGTCTCCC
DNA 2: TGGTGGCTACGACGGGATT
B16: GACUACC (DNA:RNA)
RNA: B1 RNA with C25G, G26A, A28U, G30C
DNA 1: CAATCTGAATTCCGGTCTCCC
DNA 2: TGGTGGCTACGACGGGATT
B17: CCGCCGC (DNA:RNA)
RNA: B1 RNA with G26C, C27G, A28C, A29C
DNA 1: CAATCTGAATTCCGGTCTCCC
DNA 2: TGGTGGCTACGACGGGATT
B18: AGGGCGC (DNA:RNA)
RNA: B1 RNA with C25A, C27G, A28G, A29C
DNA 1: CAATCTGAATTCCGGTCTCCC
DNA 2: TGGTGGCTACGACGGGATT
B19: UCUAUUU (DNA:RNA)
RNA: B1 RNA with C25U, G26C, C27U, A29U, G30U, C31U
DNA 1: CAATCTGAATTCCGGTCTCCC
DNA 2: TGGTGGCTACGACGGGATT
B20: CACUCAG (DNA:RNA)
RNA: B1 RNA with G26A, A28U, A29C, G30A, C31G
DNA 1: CAATCTGAATTCCGGTCTCCC
DNA 2: TGGTGGCTACGACGGGATT
B21: AACUAGA (DNA:RNA)
RNA: B1 RNA with C25A, G26A, A28U, C31A
DNA 1: CAATCTGAATTCCGGTCTCCC
DNA 2: TGGTGGCTACGACGGGATT
B22: AUCGUGU (DNA:RNA)
RNA: B1 RNA with C25A, G26U, A28G, A29U, C31U
DNA 1: CAATCTGAATTCCGGTCTCCC
DNA 2: TGGTGGCTACGACGGGATT
B23: CCAACUA (DNA:RNA)
RNA: B1 RNA with G26C, C27A, A29C, G30U, C31A
DNA 1: CAATCTGAATTCCGGTCTCCC
DNA 2: TGGTGGCTACGACGGGATT
B24: GUGAGUU (DNA:RNA)
RNA: B13 RNA with A27G, G28A, A30U, A31U
DNA 1: CAATCTGAATTCCGGTCTCCC
DNA 2: TGGTGGCTACGACGGGATT
B25: AGUACUU (DNA:RNA)
RNA: B1 RNA with C25A, C27U, A29C, G30U, C31U
DNA 1: CAATCTGAATTCCGGTCTCCC
DNA 2: TGGTGGCTACGACGGGATT
B26: AUAUGAU (DNA:RNA)
RNA: B13 RNA with G25A, G28U, A31U
DNA 1: CAATCTGAATTCCGGTCTCCC
DNA 2: TGGTGGCTACGACGGGATT
B27: GCUGCGA (DNA:RNA)
RNA: B13 RNA with U26C, A27U, G29C, A30G
DNA 1: CAATCTGAATTCCGGTCTCCC
DNA 2: TGGTGGCTACGACGGGATT
B28: UGUCAUU (DNA:RNA)
RNA: B1 RNA with C25U, C27U, A28C, G30U, C31U
DNA 1: CAATCTGAATTCCGGTCTCCC
DNA 2: TGGTGGCTACGACGGGATT
B29: CCUGAAG (DNA:RNA)
RNA: B1 RNA with G26C, C27U, A28G, G30A, C31G
DNA 1: CAATCTGAATTCCGGTCTCCC
DNA 2: TGGTGGCTACGACGGGATT
B30: AAGGCCC (DNA:RNA)
RNA: B1 RNA with C25A, G26A, C27G, A28G, A29C, G30C
DNA 1: CAATCTGAATTCCGGTCTCCC
DNA 2: TGGTGGCTACGACGGGATT
B31: ACCCUGC (DNA:RNA)
RNA: B1 RNA with C25A, G26C, A28C, A29U
DNA 1: CAATCTGAATTCCGGTCTCCC
DNA 2: TGGTGGCTACGACGGGATT

Target: T1, RBFOX1 RRM (Homo sapiens, UniProt Q9NWB1 109-208)
T1 sequence: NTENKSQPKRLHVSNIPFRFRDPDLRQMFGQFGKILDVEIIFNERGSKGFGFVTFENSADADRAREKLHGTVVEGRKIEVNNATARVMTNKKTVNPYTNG
Assay: EMSA; HiTS-Eq, 1 nM pool, 10 min; buffer printed only for the single-RNA assays: 10 mM Tris pH 7.5, 150 mM NaCl, 3.4 mM EDTA, 0.001% NP-40, 30 C
Details: tags: His6 N-terminal (pET28a); label: 5' 32P
How it was run: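 These values rest on relative association constants, computed from read-count changes of each RNA species versus the control reaction and normalised to the cognate motif. Reads came from free RNA recovered by 8% native PAGE after purified RbFox RRM (wild type or mutant) at increasing concentrations was equilibrated for 10 min in 50 µL with 1 nM of a 5′-radiolabelled pool with 7 randomized nucleotides and DNA-annealed flanks.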

Binder | binding signal
B1 | 0.0159 KA relative to UGCAUGU
B2 | 0.0049 KA relative to UGCAUGU
B3 | 0.0333 KA relative to UGCAUGU
B4 | 0.00157 KA relative to UGCAUGU
B5 | 0.00323 KA relative to UGCAUGU
B6 | 0.00568 KA relative to UGCAUGU
B7 | 0.0102 KA relative to UGCAUGU
B8 | 0.00429 KA relative to UGCAUGU
B9 | 0.00206 KA relative to UGCAUGU
B10 | 0.000718 KA relative to UGCAUGU
B11 | 0.0049 KA relative to UGCAUGU
B12 | 0.00717 KA relative to UGCAUGU
B13 | 0.00484 KA relative to UGCAUGU
B14 | 0.00351 KA relative to UGCAUGU
B15 | 0.00642 KA relative to UGCAUGU
B16 | 0.00582 KA relative to UGCAUGU

Binder | binding signal
B17 | 0.00251 KA relative to UGCAUGU
B18 | 0.0254 KA relative to UGCAUGU
B19 | 0.00867 KA relative to UGCAUGU
B20 | 0.00533 KA relative to UGCAUGU
B21 | 0.00203 KA relative to UGCAUGU
B22 | 0.0122 KA relative to UGCAUGU
B23 | 0.00394 KA relative to UGCAUGU
B24 | 0.0159 KA relative to UGCAUGU
B25 | 0.00806 KA relative to UGCAUGU
B26 | 0.00946 KA relative to UGCAUGU
B27 | 0.0191 KA relative to UGCAUGU
B28 | 0.0124 KA relative to UGCAUGU
B29 | 0.0147 KA relative to UGCAUGU
B30 | 0.00819 KA relative to UGCAUGU
B31 | 0.00869 KA relative to UGCAUGU
